According to paper PMC4336329 (PLoS ONE, 2015):
Out of some 310,000 compounds screened, about 14,000 (4.5%) showed an effect of 50% or more. Effects have a minus sign here. Some of the results follow.

biological target: human ether-à-go-go-related gene (hERG) potassium channel (human, UniProt Q12809); assay: primary screen, population patch clamp on CHO cells stably expressing hERG
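Also: peak tail current of the secondary pulse compared with the same well before compound.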

human ether-à-go-go-related gene (hERG) potassium channel, sequence (Q12809 whole entry, looked up): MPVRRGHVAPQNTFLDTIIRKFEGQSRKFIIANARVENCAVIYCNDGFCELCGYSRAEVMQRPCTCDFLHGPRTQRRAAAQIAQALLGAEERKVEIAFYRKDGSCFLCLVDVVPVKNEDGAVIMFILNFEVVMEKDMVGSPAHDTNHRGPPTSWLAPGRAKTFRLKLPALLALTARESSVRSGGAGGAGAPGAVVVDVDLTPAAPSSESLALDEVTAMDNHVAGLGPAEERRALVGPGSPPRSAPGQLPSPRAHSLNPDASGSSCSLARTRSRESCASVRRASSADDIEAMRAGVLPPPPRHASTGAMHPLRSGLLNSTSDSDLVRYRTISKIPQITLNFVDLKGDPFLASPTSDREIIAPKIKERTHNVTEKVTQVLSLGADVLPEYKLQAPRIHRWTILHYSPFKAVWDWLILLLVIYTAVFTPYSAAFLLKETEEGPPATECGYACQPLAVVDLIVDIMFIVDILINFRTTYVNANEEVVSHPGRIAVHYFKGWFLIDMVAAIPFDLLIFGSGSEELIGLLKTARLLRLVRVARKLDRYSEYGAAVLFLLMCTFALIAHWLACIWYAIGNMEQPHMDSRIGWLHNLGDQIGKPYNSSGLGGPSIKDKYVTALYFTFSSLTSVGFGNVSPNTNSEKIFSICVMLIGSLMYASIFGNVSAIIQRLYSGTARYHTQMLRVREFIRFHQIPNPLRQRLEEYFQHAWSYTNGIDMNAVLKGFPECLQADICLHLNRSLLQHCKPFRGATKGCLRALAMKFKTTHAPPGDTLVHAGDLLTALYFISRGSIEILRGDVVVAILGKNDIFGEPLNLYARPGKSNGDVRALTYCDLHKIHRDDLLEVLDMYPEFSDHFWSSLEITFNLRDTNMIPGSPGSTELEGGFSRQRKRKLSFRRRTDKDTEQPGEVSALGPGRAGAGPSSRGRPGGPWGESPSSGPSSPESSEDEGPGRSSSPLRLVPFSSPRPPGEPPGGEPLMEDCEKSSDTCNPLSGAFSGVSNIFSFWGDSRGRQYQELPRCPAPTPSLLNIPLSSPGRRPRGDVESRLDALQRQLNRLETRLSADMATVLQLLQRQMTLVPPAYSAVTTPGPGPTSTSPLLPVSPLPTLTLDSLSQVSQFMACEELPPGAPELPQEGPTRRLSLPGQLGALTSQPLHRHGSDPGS

SMILES	hERG current change (%, negative = inhibition) at 10uM [%]
C=CCSc1nc2ccccc2n1C(=O)/C=C/c1cc(OC)c(OC)c(OC)c1	5.1
O=C(c1ccc2c(c1)OCCO2)C1CCN(C(=O)c2ccc(F)c(F)c2)CC1	-15.7
CCOC(=O)[C@H]1[C@H]2COc3cc(OC)ccc3[C@@H]2N2C(=O)c3cc(F)c(F)cc3NC(=O)[C@@]12C	-6.33
O=C(COc1ccccc1)N(Cc1ccco1)C1CCS(=O)(=O)C1 (stereo not drawn)	-11.5
CC(=O)N1CCN(S(=O)(=O)c2cccc(C(=O)Nc3nc4ccccc4[nH]3)c2)CC1	9.65
O=CN1CCN(C2CC(=O)N(c3ccc4c(c3)OCO4)C2=O)CC1 (stereo not drawn)	-4.9
CCc1sc(NC(=O)CN2CCOCC2)nc1-c1ccccc1	-12.1
COc1ccc(C#Cc2c(-c3ccc(OC)cc3)oc3ccc(-c4ccc(OC)cc4)cc23)cc1	-10.9
Cc1ccc(/C=N/NC(=O)c2c[nH]c3ccccc23)o1	8.53
CCC(C(=O)Nc1ccc(S(=O)(=O)Nc2ncccn2)cc1)c1ccccc1 (stereo not drawn)	17.2
CN(C)c1ccc(C(=O)Nc2nnc(C3=COCCO3)o2)cc1	11.3
N#CCCN(Cc1ccccc1)S(=O)(=O)c1cccs1	-16.5
Cc1cc(=O)oc2c3c(cc(OCC(=O)NCc4ccccc4)c12)OC(C)(C)CC3	-8.45
Cl.c1ccc(C2CCC(N3CCNCC3)CC2)cc1 (stereo not drawn)	-6.76
O=C(Cc1ccc([N+](=O)[O-])cc1)Nc1ccc(Br)cn1	-5.38
Cc1sc(Cc2nc(O)cs2)nc1-c1ccccc1	26.6
COC(=O)c1ccccc1NC(=O)N1CCc2ccc(NC(=O)c3ccccn3)cc2C1	-16.4
COc1ccc(CNCCc2ccc([N+](=O)[O-])cc2)c(OC)c1OC.O=C(O)C(=O)O	-68.9
CC(=O)Nc1ccc(N/C=C/C(=O)c2ccc(C)o2)cc1	-3.49
CC(C)(C)c1ccc(NC(=O)c2cc[n+]([O-])cc2)cc1	11.6
COc1ccccc1/C=N/NC(=O)CCn1cnc2ccccc21	2.84

SMILES	hERG current change (%, negative = inhibition) at 10uM [%]
Cc1ccc(NC(=O)C(C)SCc2nc3sc4c(c3c(=O)[nH]2)CCCC4)nc1 (stereo not drawn)	-25.3
N#CCSc1nc2ccc(N3CCOCC3)cc2c(=O)n1CCc1ccccc1	-5.02
C=CCOc1ccc(/C(CC)=N/O)cc1OC	16.9
Cc1cccc(-n2c(SCC(=O)Nc3nnc(C)s3)nnc2-c2ccoc2C)c1	-63.9
O=C(NCc1ccco1)/C(=C\c1cccc([N+](=O)[O-])c1)NC(=O)c1ccco1	-64.7
COc1c(O)cc2c(c1O)[C@@H]1O[C@H](CO)[C@@H](O)[C@H](O)[C@H]1OC2=O	19
C=CCn1c(COc2ccc(Cl)cc2)nnc1SCC(=O)N1CC(=O)Nc2ccccc21	-63.5
CC1CCC(N2CC(=O)N(Cc3ccc4c(c3)OCO4)C(c3ccc(F)cc3)C2=O)CC1 (stereo not drawn)	-41.5
COc1ccc(N2CC(C(=O)Nc3nnc(SCC(=O)NC(C)(C)C)s3)CC2=O)cc1 (stereo not drawn)	21.4
COc1ccc(/C(N)=N/OC(=O)C2CCCCC2)cc1OC	6.29
COc1ccc(C2CCCN2C(=S)Nc2ccc(C)cc2C)cc1OC (stereo not drawn)	-12.1
N#CC1=C(SCC(N)=O)NC2=C(C(=O)c3ccccc32)C1c1ccc(Cl)cc1 (stereo not drawn)	-1.6
CCNS(=O)(=O)c1ccc(CCC(=O)N2CCN(C(=O)OCC)CC2)cc1	13.6
Cc1c(CCC(=O)O)c(=O)oc2cc3occ(-c4ccc(Cl)cc4)c3cc12	21.7
Cc1ccc2nc(-c3ccncc3)cc(C(=O)Nc3ccc(OC(F)F)cc3)c2c1	-4.72
Cc1cc(C(F)(F)F)n2nc(-c3cnn(C)c3C(F)(F)F)c(Br)c2n1	16.9
O=C(NC1CCCCC1)C(c1cccs1)N(Cc1cccs1)C(=O)c1cccs1 (stereo not drawn)	-12.2
CC(=O)Nc1nc(-c2ccc(Br)s2)cs1	11.8
O=C(c1ccc(Cl)cc1)c1c[nH]c(C(=O)NNc2cccc(Cl)n2)c1	17.3
CCN(CC)S(=O)(=O)c1ccc(/C=C/C(=O)OCC(=O)Nc2ccc(S(N)(=O)=O)cc2)cc1	-2.24
Cn1cnnc1SCC(=O)c1cc2ccccc2oc1=O	1.13
